The values below come from PubChem BioAssay AID1508623 (National Center for Advancing Translational Sciences (NCATS), 2021).

Out of some 48,000 compounds screened, about 450 (0.94%) were called active. Roughly 19% stayed inconclusive and do not appear here. Calls follow the shape of the dose curve; as a rule, active = well fitted inhibition curve with a large enough effect; inconclusive = small, poorly fitted or top-dose-only effect; inactive = no such curve, though single readings can be large or run the other way. Some of the results follow.

A short description of this assay: Primary qHTS for Identification of Small Molecule Inhibitors of Huntingtin Promoter Activity. Also: nearly all actives have a fitted effect of over 50% in size. The conditions noted are these: HEK293 HTT promoter firefly luciferase reporter (activity 0% = vehicle and -100% = no light), 24 h; series mostly up to 57.5 µM; activity change, negative = inhibition: at the top concentration. In short, it runs like this:
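Luminescence was read after Dual-Glo reagent and a 10 min room-temperature incubation. Values were normalized to vehicle (0% activity) and zero RLU (-100% activity). Reporter HEK293 cells had been exposed to compounds (up to 57.5 uM final) for 24 h.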
As for `Cn1cc(C=C2C(=O)Nc3cccnc32)c2ccccc21`, the “activity change, negative = inhibition” value is inactive: 35.1%.

For the compound `COC(=O)c1sccc1S(=O)(=O)N(CC(=O)Nc1cccc(C)c1C)c1ccc(C)c(C)c1`, the “activity change, negative = inhibition” value was inactive: -29.5%.

On to `CC(C)CN(CCNC(=O)CCN1N=C(c2ccccc2)CCC1=O)CC(C)C`, for which the “activity change, negative = inhibition” value is inactive: 2.28%.

In the case of `COc1ccc2c(c1)c1c(c(=O)n(CCc3ccccc3)c(=O)n1Cc1cccc(F)c1)n2C`, the “activity change, negative = inhibition” value is inactive: -10.2%.

As for `CCSc1nc2ccccc2c(OCc2ccc(Cl)cc2)c1C(=O)OC`, the “activity change, negative = inhibition” value was inactive: -17.1%.

With `Cc1ccc(-c2onc(C)c2C)cc1S(=O)(=O)Nc1ccccn1`, the “activity change, negative = inhibition” value is inactive: 6.47%.

As to `CCc1ccccc1NC(=O)c1ccc2c(c1)CCCN2S(C)(=O)=O`, the “activity change, negative = inhibition” value was inactive: 1.08%.

As to `COc1ccc(Cn2c(CO)cnc2SCc2ccc(C)cc2)cc1`, the “activity change, negative = inhibition” value was inactive: 63.5%.

In the case of `COc1ccc(CCNC(=O)CN(c2ccccc2)S(=O)(=O)N(C)C)cc1OC`, the “activity change, negative = inhibition” value was inactive: -21.4%.

Take `CC(=O)N1CCC(N(CCCOC(C)C)C(=O)Nc2ccc(C)c(C)c2)CC1`: the “activity change, negative = inhibition” value was inactive: -17.7%.

In the case of `CCc1cccc(C)c1NC(=O)CSc1nc2ccccc2nc1Cc1ccccc1`, the “activity change, negative = inhibition” value was inactive: -2.92%.

Turning to `Cc1ccc(NC(=O)c2oc3ccc(S(=O)(=O)N4CCC5(CC4)OCCO5)cc3c2C)cc1Cl`, the “activity change, negative = inhibition” value is inactive: -12.2%.

As to `COc1ccc(-c2nc3cc(NC(=O)COc4ccccc4C)ccc3o2)cc1`, the “activity change, negative = inhibition” value is inactive: -1.03%.

With `CCc1c(C)sc2c1CCN(Cc1ccc(C#N)cc1)C2c1ccccc1` (stereo not drawn), the “activity change, negative = inhibition” value was inactive: -18.8%.

For `O=C(CN1C(=O)CCSc2ccc(S(=O)(=O)N3CCCC3)cc21)Nc1cccc(F)c1`, the “activity change, negative = inhibition” value is inactive: -25.4%.

With `CCOC(=O)C(C)NC(=O)c1c2c(nc3ccccc13)C(=O)N(C1CCCCC1)C2` (stereo not drawn), the “activity change, negative = inhibition” value was inactive: -5.57%.

As for `COC(=O)CC1Oc2ccccc2-n2cc(-c3ccc(F)cc3)nc21` (stereo not drawn), the “activity change, negative = inhibition” value was inactive: -25.3%.

Regarding `COc1cc(C(c2c(C)[nH][nH]c2=O)c2c(C)[nH][nH]c2=O)ccc1OC(=O)c1ccccc1OC`, the “activity change, negative = inhibition” value is inactive: 6.29%.

For the compound `Cc1ccc(Cl)cc1-n1nnc(-c2nc(-c3ccc4c(c3)OCO4)no2)c1C`, the “activity change, negative = inhibition” value is inactive: 22.8%.

For the compound `COc1ccc(Nc2nn3c(=O)c4cc5c(cc4nc3s2)OCO5)c(OC)c1`, the “activity change, negative = inhibition” value is inactive: -15.2%.

Consider `CCOc1ccc(/C=C/C(=O)Nc2ccc3nc(N(CC)CC)cc(C)c3c2)cc1OC`, for which the “activity change, negative = inhibition” value is inactive: -21.8%.

Regarding `CCC(=O)N1c2ccc(S(=O)(=O)CCC(=O)Nc3ccc(OC)cc3OC)cc2CC1C` (stereo not drawn), the “activity change, negative = inhibition” value is inactive: -4.29%.

Turning to `CCN1CCN(c2ncc3c(n2)CCN(Cc2ccccc2C)C3)CC1`, the “activity change, negative = inhibition” value is inactive: -11.3%.

With `CCc1ccc(-n2nc(CO)c(C(=O)NC)n2)cc1`, the “activity change, negative = inhibition” value was inactive: 52.5%.

For the compound `COc1ccc(-c2nc(CS(=O)CC(=O)NCCc3ccc(Cl)cc3)c(C)o2)cc1OC` (stereo not drawn), the “activity change, negative = inhibition” value is inactive: -16.9%.

For `COc1cc(CN(C(=O)c2ccccc2F)C2CCS(=O)(=O)C2)cc(OC)c1OC` (stereo not drawn), the “activity change, negative = inhibition” value is inactive: -15.6%.

For the compound `CCCS(=O)(=O)N1CC(=O)N(c2ccc(C)c(Cl)c2)C(C)(C(=O)NC2CCCCCC2)C1` (stereo not drawn), the “activity change, negative = inhibition” value is inactive: -5.75%.

`Oc1c(C(c2ccc(F)cc2)N2CCN(Cc3ccccc3)CC2)sc2nc(-c3ccco3)nn12` (stereo not drawn): the “activity change, negative = inhibition” value was inactive: -0.119%.

In the case of `CN1C(=O)C2(c3ccccc31)N(c1cccc(C(F)(F)F)c1)C(=O)CS2(=O)=O` (stereo not drawn), the “activity change, negative = inhibition” value was inactive: -24.2%.

On to `COc1ccc(NC(=O)C2CCCN(S(=O)(=O)c3c(C)[nH]c(=O)[nH]c3=O)C2)c(OC)c1` (stereo not drawn), for which the “activity change, negative = inhibition” value was inactive: 22.6%.

Take `O=C(NCc1ccc(F)cc1)C(=O)NCC(c1ccc2c(c1)OCO2)N1CCOCC1` (stereo not drawn): the “activity change, negative = inhibition” value was inactive: -2.5%.

Take `Cc1cccc(-c2nc3nc(C)cc(NC(C)c4ccccc4)n3n2)c1` (stereo not drawn): the “activity change, negative = inhibition” value was inactive: -8.4%.

For `COc1ccc(C(=O)N(Cc2ccco2)Cc2ccc(C)o2)cc1`, the “activity change, negative = inhibition” value was inactive: -3.93%.

As for `COc1cc(NS(=O)(=O)c2ccc(NC(=O)c3ccc(Cl)cc3Cl)cc2)nc(OC)n1`, the “activity change, negative = inhibition” value is inactive: -0.423%.

As for `CNC(=O)c1c(NC(=O)/C=C/c2ccccc2)sc2c1CCC2`, the “activity change, negative = inhibition” value was inactive: -1.41%.

In the case of `Cc1ccc2nc(-c3ccc(NC(=O)COc4ccc(Br)cc4Br)cc3)sc2c1`, the “activity change, negative = inhibition” value was inactive: -27.2%.

For `CCOc1ccc(NC(=O)Cn2nnc(-c3nc(-c4ccncc4)no3)c2N)cc1`, the “activity change, negative = inhibition” value is inactive: 4.02%.

In the case of `Cc1ccccc1NC(=O)/C(C#N)=C/c1ccc(Cl)cc1Cl`, the “activity change, negative = inhibition” value is inactive: -9.87%.

On to `CCc1ccc(NCc2cc3cc4c(cc3n(CC(=O)Nc3ccccc3C)c2=O)OCCO4)cc1`, for which the “activity change, negative = inhibition” value is inactive: -15.9%.

`Cc1nn2c(C)c(C(=O)NCCc3ccccc3)cnc2c1-c1ccccc1`: the “activity change, negative = inhibition” value is inactive: 10.6%.

As for `CCOC(=O)c1ccc(NC(=O)CC(=O)Nc2ccc3nc4n(c(=O)c3c2)CCCCC4)cc1`, the “activity change, negative = inhibition” value was inactive: -6.48%.

On to `CC(C)c1ccc(N(CC(=O)O)S(=O)(=O)c2ccc3[nH]c(=O)c(=O)[nH]c3c2)cc1`, for which the “activity change, negative = inhibition” value is inactive: -0.149%.

With `Cc1ccc2oc(C(=O)Nc3ccc(S(=O)(=O)Nc4nccc(C)n4)cc3)cc(=O)c2c1`, the “activity change, negative = inhibition” value is inactive: -1.46%.

As to `COc1ccc(Br)cc1CNC(=O)CN1C(=O)c2cccnc2Oc2ccc(C)cc21`, the “activity change, negative = inhibition” value was inactive: -7.16%.

`Cc1ccc2ncc3c(-c4ccc(F)cc4)nn(CC(=O)Nc4ccccc4C)c3c2c1`: the “activity change, negative = inhibition” value is inactive: 1.22%.

For `CCCCCCCN(CC)CCCC(O)c1ccc(NS(C)(=O)=O)cc1` (stereo not drawn), the “activity change, negative = inhibition” value was inactive: 2.94%.

For `Cc1ccc(S(=O)(=O)Cc2nc(-c3ccc(C(=O)NCCCOC(C)C)cc3)oc2C)cc1`, the “activity change, negative = inhibition” value is inactive: -18.7%.

In the case of `CSc1ccc(CCNC(=O)CCCn2c(=O)c3cccn3c3ccccc32)cc1`, the “activity change, negative = inhibition” value was inactive: -23.3%.
